{
  "source": "patent US11713338B2",
  "about": "“Cyclic peptides multimers targeting α-4-β-7 integrin” (priority 2016, dated 2023)",
  "key": {"[1]": {"biological_target": "T1, recombinant integrin α4β1 (Homo sapiens, UniProt P05556+P13612)", "T1 construct": "purchased R&D Systems 5397-A3-050", "T1 sequence (P05556 21-728 limits assumed, one chain of several)": "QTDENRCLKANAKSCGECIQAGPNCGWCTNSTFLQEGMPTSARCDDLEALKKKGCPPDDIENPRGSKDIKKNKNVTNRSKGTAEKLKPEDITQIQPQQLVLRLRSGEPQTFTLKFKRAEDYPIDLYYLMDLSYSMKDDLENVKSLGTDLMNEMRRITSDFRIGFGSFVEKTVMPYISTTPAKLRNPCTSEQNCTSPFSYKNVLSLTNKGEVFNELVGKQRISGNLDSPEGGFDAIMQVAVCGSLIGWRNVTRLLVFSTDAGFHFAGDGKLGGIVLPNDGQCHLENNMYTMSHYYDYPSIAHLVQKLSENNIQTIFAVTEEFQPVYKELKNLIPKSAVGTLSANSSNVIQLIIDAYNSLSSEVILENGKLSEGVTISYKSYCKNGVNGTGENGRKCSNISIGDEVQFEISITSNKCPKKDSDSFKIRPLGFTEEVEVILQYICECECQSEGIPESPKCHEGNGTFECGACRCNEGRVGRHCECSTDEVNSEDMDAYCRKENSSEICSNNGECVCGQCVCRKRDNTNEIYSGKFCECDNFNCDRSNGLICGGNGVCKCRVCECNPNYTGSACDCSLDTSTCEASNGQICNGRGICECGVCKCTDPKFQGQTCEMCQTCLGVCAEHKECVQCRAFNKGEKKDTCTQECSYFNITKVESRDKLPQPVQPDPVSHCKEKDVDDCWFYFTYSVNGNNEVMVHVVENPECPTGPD", "assay": "Integrin α4β1—VCAM-1 competition ELISA", "type": "binding", "conditions": "read-out: ELISA α4β1 Assay IC50", "experimental": "Integrin α4β1—VCAM-1 Competition ELISA\nThe plate was incubated at 4° C. overnight. […] The plate was then incubated for 1 hour at room temperature. The plate was washed three times with wash buffer (50 mM Tris, 100 mM NaCl, 1 mM MnCl2, 0.05% Tween). To each well, 50 μl of compound diluted in assay buffer was added by transfer from a compound serial dilution plate. […] The plate was incubated at room temperature with shaking (300 rpm) for 2 hours to reach binding equilibrium. Then the plate was washed three times in wash buffer and 100 μl anti-human IgG Fc specific-HRP (Abcam, Ab97225) diluted at 1:2000 in assay buffer was added to each well. The plate was incubated at room temperature for 1 hour under agitation."}, "[2]": {"biological_target": "T2, integrin α4β7 (RPMI8866 human cells adhering to MAdCAM-1) (Homo sapiens, UniProt P13612+P26010)", "T2 construct": "RMP18866 cells, which express integrin α4β7; host or cells: RPMI8866", "T2 sequence (P13612 34-1032)": "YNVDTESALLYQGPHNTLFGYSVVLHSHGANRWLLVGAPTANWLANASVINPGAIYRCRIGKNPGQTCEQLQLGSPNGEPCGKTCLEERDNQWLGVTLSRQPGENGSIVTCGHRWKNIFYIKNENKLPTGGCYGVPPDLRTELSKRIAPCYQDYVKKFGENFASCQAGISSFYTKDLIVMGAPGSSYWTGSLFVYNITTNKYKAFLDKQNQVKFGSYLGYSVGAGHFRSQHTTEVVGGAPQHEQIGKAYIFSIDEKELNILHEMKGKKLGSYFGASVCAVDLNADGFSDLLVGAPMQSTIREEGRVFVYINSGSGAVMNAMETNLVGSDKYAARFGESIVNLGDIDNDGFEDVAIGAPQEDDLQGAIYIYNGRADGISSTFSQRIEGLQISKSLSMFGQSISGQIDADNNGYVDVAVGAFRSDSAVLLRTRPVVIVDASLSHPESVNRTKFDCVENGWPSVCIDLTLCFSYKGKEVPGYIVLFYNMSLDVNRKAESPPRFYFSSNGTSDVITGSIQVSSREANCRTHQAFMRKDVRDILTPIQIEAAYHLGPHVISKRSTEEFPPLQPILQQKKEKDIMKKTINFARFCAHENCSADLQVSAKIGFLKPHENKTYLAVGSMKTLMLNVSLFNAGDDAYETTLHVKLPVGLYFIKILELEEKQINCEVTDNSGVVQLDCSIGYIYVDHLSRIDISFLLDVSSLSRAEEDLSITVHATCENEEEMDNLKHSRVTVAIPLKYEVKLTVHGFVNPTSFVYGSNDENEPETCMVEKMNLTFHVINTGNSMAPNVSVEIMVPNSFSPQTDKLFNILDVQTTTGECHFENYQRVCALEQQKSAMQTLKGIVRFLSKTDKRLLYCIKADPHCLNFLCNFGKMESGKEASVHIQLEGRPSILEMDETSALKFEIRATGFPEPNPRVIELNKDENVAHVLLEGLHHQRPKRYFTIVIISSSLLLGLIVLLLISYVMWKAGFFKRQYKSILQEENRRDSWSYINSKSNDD", "T2 sequence (P26010 20-798)": "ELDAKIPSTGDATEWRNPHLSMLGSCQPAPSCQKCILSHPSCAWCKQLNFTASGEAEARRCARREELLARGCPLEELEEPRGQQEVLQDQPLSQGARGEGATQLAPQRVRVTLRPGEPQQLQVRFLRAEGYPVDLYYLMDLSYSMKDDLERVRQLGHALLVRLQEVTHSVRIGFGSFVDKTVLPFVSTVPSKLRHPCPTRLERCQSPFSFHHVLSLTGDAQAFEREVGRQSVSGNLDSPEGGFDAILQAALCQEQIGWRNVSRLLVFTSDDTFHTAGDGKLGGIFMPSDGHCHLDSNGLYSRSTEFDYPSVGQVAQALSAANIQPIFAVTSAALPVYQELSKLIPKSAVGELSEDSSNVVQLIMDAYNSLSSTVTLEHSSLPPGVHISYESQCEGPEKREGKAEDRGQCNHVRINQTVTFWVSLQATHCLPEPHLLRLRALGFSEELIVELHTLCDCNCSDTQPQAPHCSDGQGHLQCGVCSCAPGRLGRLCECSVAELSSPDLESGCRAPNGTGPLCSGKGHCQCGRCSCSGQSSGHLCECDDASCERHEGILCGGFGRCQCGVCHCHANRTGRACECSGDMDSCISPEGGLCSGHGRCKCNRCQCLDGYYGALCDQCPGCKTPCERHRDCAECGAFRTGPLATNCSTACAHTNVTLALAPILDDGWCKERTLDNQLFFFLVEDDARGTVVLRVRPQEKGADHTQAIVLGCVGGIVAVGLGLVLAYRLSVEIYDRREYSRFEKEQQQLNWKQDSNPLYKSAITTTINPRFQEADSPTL", "assay": "Integrin α4β7-MAdCAM cell adhesion assay (RPMI8866 cells)", "type": "cell-based", "experimental": "Integrin α4β7-MAdCAM Cell Adhesion Assay\nRPMI8866 cells were resuspended at 10 million cells/ml in PBS containing […] and incubated at 37° C. for 30 min in a 50 ml tube. […] The plate was emptied by inverting and blotting on paper towels and washed manually twice with PBS. 100 μl PBS was then added to each well. […] To calculate the dose response, the fluorescence value of control wells not containing cells was subtracted from each test well."}},
  "note": "At least one compound was matched to its structure with a doubt left.",
  "data": [
    {"compound": "CC(C)C[C@@H]1NC(=O)C[C@H](CCCCN)N(C)C(=O)[C@H](CCCCNC(=O)c2cc(C(=O)O)cc(C(=O)NCCCC[C@@H]3NC(=O)[C@@H]4CCCN4[C@H](C(=O)NC(C)(C)C)[C@H](C)NC(=O)[C@H]([C@@H](C)O)NC(=O)[C@H](CC(=O)O)NC(=O)[C@H](CC(C)C)NC(=O)C[C@H](CCCCN)N(C)C3=O)c2)NC(=O)[C@@H]2CCCN2[C@H](C(=O)NC(C)(C)C)[C@H](C)NC(=O)[C@H]([C@@H](C)O)NC(=O)[C@H](CC(=O)O)NC1=O", "note": "[Compound 537]", "values": [
      {"measurement": "IC50", "setting": "[1]", "result": 2.5, "unit": "nM"},
      {"measurement": "IC50", "setting": "[2]", "result": 19, "unit": "nM"}
    ]}
  ]
}
